The other results are listed elsewhere or left out. The list includes weakly bound sequences.
target: MaxL homodimer (UniProt P61244); experiment: universal protein-binding microarray (PBM); details: PBS-based mixture, 10 nM His-tagged protein dimer, 2% milk, 200 ng/uL BSA, 50 ng/uL salmon testes DNA, 0.02% TX-100; detection with Alexa 488 anti-His …; high values mean tight binding; most listed sequences are background and not binding sites; double strand, one strand shown
Chain of UniProt P61244 (P61244 whole entry): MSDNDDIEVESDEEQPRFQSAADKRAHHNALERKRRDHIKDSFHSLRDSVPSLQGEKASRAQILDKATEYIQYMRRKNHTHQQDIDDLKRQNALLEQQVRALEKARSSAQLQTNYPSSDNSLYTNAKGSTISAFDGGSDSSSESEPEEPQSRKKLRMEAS

Row | Sequence | binding signal (normalized occupancy)
1 | GTTAATCA | 0.0763
2 | GCCTTCGC | 0.0729
3 | CTGGTAGA | 0.0724
4 | CTTGAAAC | 0.0698
5 | ACTCACCG | 0.0685
6 | CGTAAGAC | 0.073
7 | GCAGCGGC | 0.0684
8 | GAAGTCAA | 0.0731
9 | GTGTGAAA | 0.077
10 | GAATCGAC | 0.0734
11 | TCCAGACA | 0.0755
12 | CGCCCCCC | 0.0791
13 | CCCGGTAG | 0.0721
14 | CACTTCCA | 0.0744
15 | ACGTGTGG | 0.104
16 | AGGAGGTG | 0.0739
17 | GGCGCCCA | 0.0683
18 | GTCGGCTA | 0.0725
19 | GAAGTTCA | 0.0702
20 | ATTGTGTA | 0.0795
21 | ATAGCTAA | 0.0709
22 | CACGGAAC | 0.0765
23 | AGATGACT | 0.0724
24 | CGTTCGTC | 0.0756
25 | ACGAGCGT | 0.079

Row | Sequence | binding signal (normalized occupancy)
26 | AGCGTAAT | 0.0783
27 | GCCATCAC | 0.0781
28 | CGCTTACA | 0.0759
29 | ATGTAATA | 0.0877
30 | GACTCGAC | 0.0716
31 | GGCTCACA | 0.0784
32 | CGCTGAGC | 0.0666
33 | GAAGACCA | 0.0742
34 | TAACCCAA | 0.0724
35 | AGTGCTTC | 0.071
36 | AGTCTCCA | 0.0703
37 | ACACTGAC | 0.0742
38 | GAAATATA | 0.0832
39 | AGAGCACA | 0.0745
40 | AGTACCAA | 0.0697
41 | GTGATCAA | 0.0762
42 | CCGAGCAG | 0.0688
43 | CCGGAGGA | 0.0682
44 | AGTCAAAG | 0.0683
45 | GAGGCCTC | 0.066
46 | AATGGTCG | 0.0788
47 | TCTTTAAA | 0.0739
48 | CAGTGGCA | 0.0709
49 | ACCCTCCG | 0.0716
50 | AGACGATA | 0.0776

Row | Sequence | binding signal (normalized occupancy)
51 | CATGTTTA | 0.0975
52 | CAGGATAG | 0.0808
53 | ATGTACCG | 0.0773
54 | TGCCGACA | 0.0708
55 | CCTTATGA | 0.0858
56 | CCGTATGC | 0.0775
57 | GCCTTTGA | 0.0737
58 | CTACTCAA | 0.076
59 | TCCATCGA | 0.0807
60 | CTAACAAG | 0.0763
61 | CTAAACCA | 0.0714
62 | GGATCACC | 0.0774
63 | CCTTGTGA | 0.0852
64 | AGCTACCA | 0.0774
65 | ATATCTTG | 0.0781
66 | GTCTTCAA | 0.0773
67 | AGCCCTAG | 0.0726
68 | GACTTCAA | 0.0769
69 | CAATCAAC | 0.0759
70 | ATACAACG | 0.0812
71 | CCTGCATA | 0.0775
72 | CAGACGTC | 0.0725
73 | TCACTCAA | 0.0775
74 | AGAGGGAC | 0.0712
75 | ATGTCAAC | 0.0806

Row | Sequence | binding signal (normalized occupancy)
76 | ACGTACCA | 0.0845
77 | ACGGCGAA | 0.0755
78 | AGAAATCA | 0.0761
79 | CAACGTAG | 0.0762
80 | GCTCTAGA | 0.0703
81 | CAGGGACG | 0.0724
82 | GGTTTAAC | 0.07
83 | AATCTTGT | 0.0792
84 | CCAACCTA | 0.0696
85 | GCAGGTAA | 0.0753
86 | CAACATCA | 0.0834
87 | AAGCTGAC | 0.0676
88 | CGTCCCCA | 0.0757
89 | GCCGTACA | 0.0734
90 | CTCATGCA | 0.0963
91 | CCGACGCA | 0.0724
92 | GTGCGCAA | 0.0723
93 | ATACATGG | 0.0876
94 | AAGGTCTA | 0.0766
95 | GACAGCCC | 0.0721
96 | CCATCACA | 0.0836
97 | CCTAATCA | 0.0795
98 | AAACGTTA | 0.0739
99 | AAAACATC | 0.0796
100 | CAGAGACA | 0.0742

Row | Sequence | binding signal (normalized occupancy)
101 | AAACAACT | 0.0717
102 | ATCTTCAT | 0.0785
103 | GATCTAGA | 0.0744
104 | GCCCTCAA | 0.0742
105 | GATCCTGA | 0.0762
106 | TCAGAGCA | 0.075
107 | ATGGCTTC | 0.0747
108 | AACCGCCG | 0.0663
109 | CGCAGGGA | 0.071
110 | AAGAGGAT | 0.0795
111 | AATTCGGC | 0.0731
112 | ATTTAATG | 0.0804
113 | AAGAACTA | 0.0768
114 | AGTCTGCA | 0.0717
115 | CAGCGGCA | 0.077
116 | CTCCAGGC | 0.0704
117 | CCCCTATA | 0.0838
118 | GCCCCGTA | 0.0763
119 | AGTCGCAT | 0.0785
120 | AGAAGAAC | 0.076
121 | ACTTCGCT | 0.0657
122 | GTCTTATA | 0.088
123 | GGCATACA | 0.0776
124 | CCCGCGCC | 0.0733
125 | ACAGGGCT | 0.0744

Row | Sequence | binding signal (normalized occupancy)
126 | CGTCCATA | 0.0783
127 | AACTATGC | 0.0749
128 | CGGTCCGA | 0.0679
129 | CATGTCAC | 0.0932
130 | GGGGCGGA | 0.0751
131 | AATCGACA | 0.0751
132 | AGTAGTCG | 0.0751
133 | AGGTGTAA | 0.0858
134 | GACCGCGC | 0.0751
135 | GATTCTAA | 0.0771
136 | CAGCTGTC | 0.0716
137 | CACGGGTC | 0.0809
138 | TGTCACAA | 0.0769
139 | ACCTGAAT | 0.0786
140 | CCCAGGGC | 0.0664
141 | CCACCTAA | 0.0735
142 | CACCAAGG | 0.0757
143 | CGAAGTAA | 0.0697
144 | ATTCTTAA | 0.075
145 | GCCAGAAC | 0.0772
146 | AACCTAAA | 0.0677
147 | TATCTAGA | 0.0728
148 | TCTTTTCA | 0.0755
149 | CGAGAAGA | 0.0702
150 | CATGTACA | 0.0958

Row | Sequence | binding signal (normalized occupancy)
151 | CGTATTAG | 0.0769
152 | AGGTTGAC | 0.0776
153 | CGGTGAGA | 0.0759
154 | GACTTCCA | 0.0741
155 | TCGATAAA | 0.0738
156 | GCCCTTCA | 0.0726
157 | GATCTTTA | 0.0747
158 | CCAGGTCC | 0.066
159 | GTGTTTAA | 0.0772
160 | GATTAATC | 0.0681
161 | AGCCGCTA | 0.0678
162 | CAAGGTCA | 0.0762
163 | GGAGCCAA | 0.0767
164 | AGTTGGAG | 0.0724
165 | TCCGGTAA | 0.0716
166 | ATACACCC | 0.0857
167 | CTCTATGC | 0.0797
168 | GCCTTAAC | 0.075
169 | CCCAGCCC | 0.0749
170 | GAGCGGAC | 0.0706
171 | AGTCCAAA | 0.0702
172 | GTATCGAC | 0.0744
